Laboratory results reported in the supplement of paper PMC3334620.
In all, about 33,000 sequences were measured (“E-score (-0.5 to 0.5)”: median about -0.036, highest 2% from about 0.37 on). The list shows a part of the results.

What follows are sequences tested against T1, Yer064c (UniProt P40041) (assay: PBM E-score (8-mer binding enrichment) (E-score (-0.5 to 0.5)); higher = stronger / more preferred TF binding; most listed sequences are background and not binding sites). Details: protein concentration: 200 nM; construct: GST-full length.
T1 sequence: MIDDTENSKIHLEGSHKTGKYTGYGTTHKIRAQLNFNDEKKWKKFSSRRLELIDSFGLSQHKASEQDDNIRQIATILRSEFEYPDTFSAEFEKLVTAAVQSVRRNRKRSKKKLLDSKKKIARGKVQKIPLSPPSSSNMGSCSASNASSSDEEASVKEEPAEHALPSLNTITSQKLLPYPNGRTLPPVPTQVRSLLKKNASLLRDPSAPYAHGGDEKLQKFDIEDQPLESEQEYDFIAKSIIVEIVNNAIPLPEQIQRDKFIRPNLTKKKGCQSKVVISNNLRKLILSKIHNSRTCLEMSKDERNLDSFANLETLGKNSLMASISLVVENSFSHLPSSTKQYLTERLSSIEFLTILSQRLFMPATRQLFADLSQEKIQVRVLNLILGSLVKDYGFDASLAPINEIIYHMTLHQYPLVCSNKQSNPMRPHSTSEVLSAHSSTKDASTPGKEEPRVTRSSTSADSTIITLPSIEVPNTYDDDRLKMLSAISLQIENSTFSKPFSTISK
How it was run: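 Using PURExpress in vitro transcription/translation, GST-tagged yeast transcription factors were made in full-length or DNA-binding-domain form. These were applied at about 100-200 nM to double-stranded universal all-10-mer Agilent arrays, and bound protein was detected with fluorescent anti-GST. Scans were normalised with masliner before the Universal PBM Analysis Suite assigned E-scores to ungapped eight-base words pooled with their reverse complements.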

Going from GCACTTCC to AATGAGGC, the “PBM E-score” value rises from -0.318 to -0.245.

First: GCAATCAC
Second: ATTCCCAC
The “PBM E-score” value of the first is higher: 0.287 for the first, 0.0834 for the second.

Going from AAAGGCGG to TAGGCAAA, the “PBM E-score” value rises from -0.124 to -0.0921.

Going from ACATTTAA to ACGATATG, the “PBM E-score” value falls from 0.114 to 0.0671.

First: GCCCGCAC
Second: ATGTACGC
The “PBM E-score” value of the first is lower: -0.231 for the first, -0.193 for the second.

Going from CTGACTCC to GCACGGTA, the “PBM E-score” value falls from 0.46 to 0.0169.

Going from ACGAGAAC to CTCTTAAC, the “PBM E-score” value falls from 0.104 to 0.0719.

Compared with ACCTGATC, AACGCTTG is lower in “PBM E-score” value: -0.0706 for the first, -0.106 for the second.

First: TATCAAGA
Second: ACAGAACC
The “PBM E-score” value of the first is higher: 0.164 for the first, -0.146 for the second.

Compared with TGTATAAA, AAACCCTC is lower in “PBM E-score” value: -0.0876 for the first, -0.203 for the second.

Compared with CAGCAACC, TACTATAA is higher in “PBM E-score” value: -0.0227 for the first, 0.0586 for the second.

Going from CGAGAGCG to ACTCGGAG, the “PBM E-score” value rises from -0.141 to 0.215.

Compared with CAGGCGCG, CCGCTCCG is higher in “PBM E-score” value: -0.114 for the first, -0.0895 for the second.

First: AACGATGA
Second: GTTTACGA
The “PBM E-score” value of the first is higher: 0.231 for the first, 0.128 for the second.

First: ACCCATAT
Second: AGTTCCTA
The “PBM E-score” value of the first is higher: 0.216 for the first, 0.091 for the second.

Compared with ACAGAAGC, GCCATGGC is lower in “PBM E-score” value: -0.0224 for the first, -0.288 for the second.

Going from CTCCCAGA to ATACGAAC, the “PBM E-score” value rises from -0.235 to -0.00917.

Going from GAGGGGGA to AGCACCCA, the “PBM E-score” value rises from -0.285 to -0.143.

First: GCCTGGGA
Second: ACTGATCG
The “PBM E-score” value of the first is lower: -0.343 for the first, 0.11 for the second.

First: ACGGCAGA
Second: CATCGAAC
The “PBM E-score” value of the first is lower: -0.293 for the first, -0.125 for the second.

Going from AAACTACA to AACTTAGT, the “PBM E-score” value rises from 0.0205 to 0.283.

Going from ATCATGTG to CGGGATAC, the “PBM E-score” value falls from 0.231 to -0.137.

Going from ATAATGCG to GGCTCCCC, the “PBM E-score” value falls from -0.12 to -0.199.

Compared with AATGAGAA, CCTGTACC is lower in “PBM E-score” value: 0.00576 for the first, -0.204 for the second.

Going from CCGACAAC to CCTGTCAC, the “PBM E-score” value rises from -0.105 to 0.0707.

Compared with AACCGTTC, AGGTGGGC is lower in “PBM E-score” value: -0.168 for the first, -0.201 for the second.

Going from ACCCACCT to AGTCGAAT, the “PBM E-score” value rises from -0.0352 to 0.141.

Going from CCCGAGGG to GTGAAGTA, the “PBM E-score” value falls from -0.0969 to -0.0979.

First: ATTTCGTC
Second: TATAACAA
The “PBM E-score” value of the first is lower: -0.0276 for the first, 0.0933 for the second.

Compared with CGGGGAGC, ATTGCACA is higher in “PBM E-score” value: -0.176 for the first, -0.0544 for the second.

Going from CGCACGAC to GAGAAGTA, the “PBM E-score” value falls from 0.0323 to 0.0142.

Compared with ATAAGCGA, ACGCACAC is higher in “PBM E-score” value: -0.0152 for the first, 0.155 for the second.

Compared with AGTGTGAT, CGTCACAG is lower in “PBM E-score” value: 0.299 for the first, -0.031 for the second.

First: ATGCCCAA
Second: ACGCGATC
The “PBM E-score” value of the first is lower: -0.318 for the first, -0.04 for the second.

Going from GGCTTCAC to GCCGATGA, the “PBM E-score” value rises from -0.226 to 0.217.

Going from CGAGGACA to AGTCTGAT, the “PBM E-score” value rises from -0.147 to 0.302.

Compared with GAGACACC, CATATAGA is lower in “PBM E-score” value: 0.266 for the first, 0.193 for the second.

First: ATCTGGTG
Second: CTAAACGA
The “PBM E-score” value of the first is lower: -0.0282 for the first, 0.0631 for the second.

First: CTTCTCGA
Second: GACCTAAC
The “PBM E-score” value of the first is lower: -0.124 for the first, 0.0736 for the second.

First: AAGTGTGT
Second: GGAAAGGA
The “PBM E-score” value of the first is higher: 0.166 for the first, 0.0585 for the second.

First: AACGCCGG
Second: CGTCTATA
The “PBM E-score” value of the first is lower: -0.229 for the first, -0.12 for the second.

Compared with ACAGTAGT, GCGTAGAA is lower in “PBM E-score” value: 0.207 for the first, -0.12 for the second.

Compared with CACGACCC, ACTGTGTG is higher in “PBM E-score” value: -0.158 for the first, 0.0826 for the second.

First: ATTTTTAC
Second: AACCTAGT
The “PBM E-score” value of the first is lower: -0.0508 for the first, 0.0495 for the second.

Compared with AGCTGCTG, ATGTTGTA is lower in “PBM E-score” value: 0.0996 for the first, -0.0488 for the second.

First: CCGCCGGC
Second: CCGTCAGA
The “PBM E-score” value of the first is higher: -0.0629 for the first, -0.151 for the second.

Compared with ACACAAAA, ACTGAAAC is higher in “PBM E-score” value: 0.0955 for the first, 0.172 for the second.

Compared with CTTTCCCC, ATCTGCTA is higher in “PBM E-score” value: -0.153 for the first, 0.00228 for the second.

Going from CTCGCGCA to ACACGCCT, the “PBM E-score” value falls from -0.0489 to -0.172.

First: AATGCGCG
Second: GTGGTAGA
The “PBM E-score” value of the first is higher: -0.0908 for the first, -0.194 for the second.

Going from CAAGGCGG to AGAAGCTA, the “PBM E-score” value rises from -0.0568 to 0.131.

Compared with ACGTTGAC, GTCCCCAA is lower in “PBM E-score” value: 0.134 for the first, -0.133 for the second.

Compared with GCAGGTAA, AATGGCAC is lower in “PBM E-score” value: -0.106 for the first, -0.231 for the second.

Going from ATACCCAA to CCGTCGAC, the “PBM E-score” value falls from 0.012 to -0.0403.

Compared with CCCCAGGA, GCTGATAC is lower in “PBM E-score” value: 0.0256 for the first, -0.0879 for the second.

Compared with AATGACCG, ACCGGTGG is higher in “PBM E-score” value: -0.203 for the first, -0.104 for the second.

Going from GGACTCAC to CCACAGAC, the “PBM E-score” value falls from 0.43 to -0.0479.

First: GAGGTCAC
Second: CGACCCCC
The “PBM E-score” value of the first is higher: 0.0361 for the first, -0.423 for the second.

First: ATGAACCG
Second: ACGAAAGC
The “PBM E-score” value of the first is higher: -0.0969 for the first, -0.156 for the second.

First: AATCGTCG
Second: ACCTTAAG
The “PBM E-score” value of the first is higher: 0.118 for the first, 0.0801 for the second.

Compared with CCCCGAAA, TAATCACA is higher in “PBM E-score” value: -0.236 for the first, 0.419 for the second.

Going from ACTGTATA to CTAGCGTC, the “PBM E-score” value falls from 0.0459 to -0.219.

Going from AGTGATCG to ATGAACGG, the “PBM E-score” value rises from -0.108 to -0.0903.

First: GTATAGAA
Second: ACCTCAAC
The “PBM E-score” value of the first is lower: -0.0318 for the first, 0.111 for the second.

Going from CCATCAGA to CAAAGAAC, the “PBM E-score” value rises from -0.145 to -0.0891.

Going from CCCTCAAG to AGGATCAC, the “PBM E-score” value rises from -0.0461 to -0.0392.

Going from CTGACGTA to CTCGGTGA, the “PBM E-score” value rises from -0.148 to 0.137.

Compared with ACCAAACA, CCCTGACC is lower in “PBM E-score” value: 0.00432 for the first, -0.0172 for the second.

Compared with CACCACAG, GAGAGATA is higher in “PBM E-score” value: -0.0545 for the first, -0.0127 for the second.

First: CCTACAAG
Second: ATGATAGA
The “PBM E-score” value of the first is lower: -0.114 for the first, -0.106 for the second.

Compared with CGACTCTA, ACAGCCCC is lower in “PBM E-score” value: 0.343 for the first, -0.294 for the second.

First: CTCCCGAC
Second: AAGGCTTC
The “PBM E-score” value of the first is higher: 0.0378 for the first, -0.227 for the second.

Compared with GCGCAGAC, CCAGAAGA is higher in “PBM E-score” value: -0.148 for the first, 0.0953 for the second.

Compared with CCTTTCAA, ACGCGATG is lower in “PBM E-score” value: -0.019 for the first, -0.154 for the second.

First: CGGTTCAG
Second: CAGAAATG
The “PBM E-score” value of the first is lower: -0.212 for the first, -0.0347 for the second.

First: GGGTGAGA
Second: AAGTCGCG
The “PBM E-score” value of the first is lower: 0.00875 for the first, 0.211 for the second.

Going from AACGAGCG to GATGCTCA, the “PBM E-score” value rises from -0.262 to -0.049.

Going from AATCTGGC to ATTCTGCG, the “PBM E-score” value rises from -0.157 to -0.0116.

Compared with CTGCTTTA, CACCTGAA is lower in “PBM E-score” value: 0.0882 for the first, -0.11 for the second.

Compared with GGACAGTA, CTACCGGA is higher in “PBM E-score” value: 0.0279 for the first, 0.109 for the second.

First: CACCTATC
Second: TCGGTTCA
The “PBM E-score” value of the first is lower: -0.105 for the first, 0.0658 for the second.

First: GCTCGACC
Second: TAAAATAA
The “PBM E-score” value of the first is lower: -0.174 for the first, 0.104 for the second.

Compared with CGGACTTC, ACAGTAAT is higher in “PBM E-score” value: -0.0346 for the first, 0.171 for the second.

First: CTGGTGCC
Second: CGTTGAGC
The “PBM E-score” value of the first is lower: -0.348 for the first, -0.0882 for the second.

Compared with ACGCCCGT, TGGACGAA is higher in “PBM E-score” value: -0.165 for the first, -0.0268 for the second.

First: ATACCATA
Second: CATTAAGG
The “PBM E-score” value of the first is higher: 0.0728 for the first, 0.0276 for the second.
